Reference: a collection of fitness landscapes (doi:10.1016/j.celrep.2020.107928)
In all, about 81,000 sequences were measured (“one-hybrid fitness for binding NBS DNA”: median about -0.1, highest 2% from about 0.36 on). The list shows a part of the results.

B1: Caulobacter ParB omega fusion; a variant is named by its letters at X, in order, B8GW30 (parent)
chain: MESVVVGEPGMSEGRRGLGRGLSALLGEVDAAPAQAPGEQLGGSREAPIEILQRNPDQPRRTFREEDLEDLSNSIREKGVLQPILVRPSPDTAGEYQIVAGERAWRAAQRAGLKTVPIMVRELDDLAVLEIGIIENVQRADLNVLEEALSYKVLMEKFERTQENIAQTIGKSXSHVANXMRLLXLPDEVQSYLVSGELTAXHARAIAAAADPVALAKQIIEGGLSVRETEALARKAPNLSAGKSKGGRPPRVKDTDTQALESDLSSVLGLDVSIDHRGSTGTLTITYATLEQLDDLCNRLTRGI

Variants of: B1
Experiment: one-hybrid fitness for binding NBS DNA (the Noc-binding site; scaled: cognate 1, non-cognate 0); higher = stronger binding
Settings: with NBS DNA site
Procedure, shortened: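 Fitness here means the log change in variant-to-wild-type read ratio between plasmids sequenced before and after selection. That scale was set so cognate equals 1 and non-cognate equals 0. The selection was a bacterial one-hybrid screen of Caulobacter ParB libraries, four specificity codons randomised, in E. coli USO carrying a HIS3 reporter with the site 19 bp from the promoter, grown 48 hours at 37°C on M9-minus-histidine with 0.1 mM IPTG and 5 mM 3-AT.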

HRSP and PERF cannot be ordered by “one-hybrid fitness for binding NBS DNA” value: no more than 0.2 for the first, no more than 0.2 for the second.

YASR and WTHR cannot be ordered by “one-hybrid fitness for binding NBS DNA” value: no more than 0.2 for the first, no more than 0.2 for the second.

Compared with QTCT, WVTT is lower in “one-hybrid fitness for binding NBS DNA” value: 0.571 for the first, no more than 0.2 for the second.

KCHS and FHHK cannot be ordered by “one-hybrid fitness for binding NBS DNA” value: no more than 0.2 for the first, no more than 0.2 for the second.

PFEV and HPFP cannot be ordered by “one-hybrid fitness for binding NBS DNA” value: no more than 0.2 for the first, no more than 0.2 for the second.

IYAG and PNRW cannot be ordered by “one-hybrid fitness for binding NBS DNA” value: no more than 0.2 for the first, no more than 0.2 for the second.

TQHI and PDSG cannot be ordered by “one-hybrid fitness for binding NBS DNA” value: no more than 0.2 for the first, no more than 0.2 for the second.

RPRK and CHCT cannot be ordered by “one-hybrid fitness for binding NBS DNA” value: no more than 0.2 for the first, no more than 0.2 for the second.

TMLM and ENQS cannot be ordered by “one-hybrid fitness for binding NBS DNA” value: no more than 0.2 for the first, no more than 0.2 for the second.

LKTV and AMEE cannot be ordered by “one-hybrid fitness for binding NBS DNA” value: no more than 0.2 for the first, no more than 0.2 for the second.

GTCS and DVQG cannot be ordered by “one-hybrid fitness for binding NBS DNA” value: no more than 0.2 for the first, no more than 0.2 for the second.

TFVT and TVNR cannot be ordered by “one-hybrid fitness for binding NBS DNA” value: no more than 0.2 for the first, no more than 0.2 for the second.

Going from FNCS to QCHS, the “one-hybrid fitness for binding NBS DNA” value rises from no more than 0.2 to 0.502.

PSSQ and GTHW cannot be ordered by “one-hybrid fitness for binding NBS DNA” value: no more than 0.2 for the first, no more than 0.2 for the second.

VHPW and REVC cannot be ordered by “one-hybrid fitness for binding NBS DNA” value: no more than 0.2 for the first, no more than 0.2 for the second.

RKQF and YFYR cannot be ordered by “one-hybrid fitness for binding NBS DNA” value: no more than 0.2 for the first, no more than 0.2 for the second.

LRQQ and PPKN cannot be ordered by “one-hybrid fitness for binding NBS DNA” value: no more than 0.2 for the first, no more than 0.2 for the second.

LMDG and ACSR cannot be ordered by “one-hybrid fitness for binding NBS DNA” value: no more than 0.2 for the first, no more than 0.2 for the second.

SANT and IHMT cannot be ordered by “one-hybrid fitness for binding NBS DNA” value: no more than 0.2 for the first, no more than 0.2 for the second.

LWFG and PHRN cannot be ordered by “one-hybrid fitness for binding NBS DNA” value: no more than 0.2 for the first, no more than 0.2 for the second.

RWAL and KLAE cannot be ordered by “one-hybrid fitness for binding NBS DNA” value: no more than 0.2 for the first, no more than 0.2 for the second.

RWYS and RVDE cannot be ordered by “one-hybrid fitness for binding NBS DNA” value: no more than 0.2 for the first, no more than 0.2 for the second.

SNRS and RIHN cannot be ordered by “one-hybrid fitness for binding NBS DNA” value: no more than 0.2 for the first, no more than 0.2 for the second.

NTAY and QNCT cannot be ordered by “one-hybrid fitness for binding NBS DNA” value: no more than 0.2 for the first, no more than 0.2 for the second.

FGDR and STGW cannot be ordered by “one-hybrid fitness for binding NBS DNA” value: no more than 0.2 for the first, no more than 0.2 for the second.

HYLR and VNNS cannot be ordered by “one-hybrid fitness for binding NBS DNA” value: no more than 0.2 for the first, no more than 0.2 for the second.

LVVW and SRIL cannot be ordered by “one-hybrid fitness for binding NBS DNA” value: no more than 0.2 for the first, no more than 0.2 for the second.

QQMC and SFNT cannot be ordered by “one-hybrid fitness for binding NBS DNA” value: no more than 0.2 for the first, no more than 0.2 for the second.

VSVR and IHPK cannot be ordered by “one-hybrid fitness for binding NBS DNA” value: no more than 0.2 for the first, no more than 0.2 for the second.

LMPL and FTIN cannot be ordered by “one-hybrid fitness for binding NBS DNA” value: no more than 0.2 for the first, no more than 0.2 for the second.

Going from MLQW to QMKD, the “one-hybrid fitness for binding NBS DNA” value rises from no more than 0.2 to 0.313.

DIAI and CCPM cannot be ordered by “one-hybrid fitness for binding NBS DNA” value: no more than 0.2 for the first, no more than 0.2 for the second.

LTQY and VIKG cannot be ordered by “one-hybrid fitness for binding NBS DNA” value: no more than 0.2 for the first, no more than 0.2 for the second.

HSKT and TSVL cannot be ordered by “one-hybrid fitness for binding NBS DNA” value: no more than 0.2 for the first, no more than 0.2 for the second.

First: HMER
Second: QCRK
The “one-hybrid fitness for binding NBS DNA” value of the first is lower: no more than 0.2 for the first, 0.478 for the second.

ARES and NFKR cannot be ordered by “one-hybrid fitness for binding NBS DNA” value: no more than 0.2 for the first, no more than 0.2 for the second.

PFKL and FMVS cannot be ordered by “one-hybrid fitness for binding NBS DNA” value: no more than 0.2 for the first, no more than 0.2 for the second.

LVHE and PSAQ cannot be ordered by “one-hybrid fitness for binding NBS DNA” value: no more than 0.2 for the first, no more than 0.2 for the second.

CQFG and QGNH cannot be ordered by “one-hybrid fitness for binding NBS DNA” value: no more than 0.2 for the first, no more than 0.2 for the second.

QVPF and LVTK cannot be ordered by “one-hybrid fitness for binding NBS DNA” value: no more than 0.2 for the first, no more than 0.2 for the second.

NHEL and SPTA cannot be ordered by “one-hybrid fitness for binding NBS DNA” value: no more than 0.2 for the first, no more than 0.2 for the second.

First: RRTQ
Second: LGQH
The “one-hybrid fitness for binding NBS DNA” value of the first is higher: 0.243 for the first, no more than 0.2 for the second.
